Some of the results follow.
Each sequence was assayed on PfAP2-HC AP2 domain (GST-tagged) (assay: gcPBM binding intensity (ln(normalized median fluorescence intensity)); higher = stronger DNA binding).
Summary of the method: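 Binding intensity is the highest Masliner-normalised natural-log median intensity over replicate spots in either probe orientation. To obtain it, GST-tagged P. falciparum DNA-binding domains made in E. coli were incubated for 1 h on an Agilent 4 × 180k array of primer-extended double-stranded 36-bp intergenic genomic probes plus negative controls. Detection used Alexa488 anti-GST antibody with scanning at 488 nm.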

Row | Sequence | gcPBM binding intensity (ln)
1 | ATATATATATATCACCGTACTTATATAATAACATGA [XGTACX_site4398] | 9.67
2 | TTTTTTTTTTATTTTTGTACATATATTTCAGTATTA [XGTACX_site8396] | 9.67
3 | TAATTATTCTATTAAGTGCATATATTTTTAAAAAGA | 9.32
4 | ATTTTTATTAAAATATGTACGTATTTTACTCATACA [XGTACX_site5330] | 9.72
5 | ATACAGAAAAAAAACACACACACATAATATACATAC [CACACA_site1933] | 10.8
6 | ATAATATTCGAGTGTGCACACAAACATACATATATA [CACACA_site3396] | 10.3
7 | ACAGATATATTTATTTGTACATATCACCAAAATGGA [XGTACX_site5644] | 9.49
8 | TACAGATATTATTGCACACATATAAAATACCCCCAA [CACACA_site6014] | 10.3
9 | TTACGTTATATACATACACACCCACGCACAAAAAAA [CACACA_site6537] | 10.6
10 | ATTAAATACTTCGATTGTACAATTTTTTTTTTTTTT [XGTACX_site832] | 9.65
11 | TAAGAATAATGACATAGTACAATTTAATAGATCTAA [XGTACX_site3670] | 9.68
12 | TTTTCAAAATAATATTATATCAAATGCTAAAAAGAA [TGCATGCA_negctrl_site588] | 9.43
13 | TAATATTTATGTTAATGTACAAAAAAACAAAACAAA [XGTACX_site301] | 9.64
14 | GTATGTATATATGTATGTACTTATGTATCATTATTA [XGTACX_site2438] | 9.74
15 | ATAATATATATTAAACGTACATAAAATAATTATGGA [XGTACX_site1670] | 9.81
16 | AATTAAATTAGAAGCACACACATATTTATATTTATA [CACACA_site7552] | 10
17 | GTATATATTTAAACACGTACACAAAACCCAAAAAAT [XGTACX_site8110] | 9.95
18 | ATACACTCACTCACACGTACAGACAACGGACGATCA [XGTACX_site1097] | 9.72
19 | GAAAAAAAAAAAAAAAAAAAAAGGAAAAAAGTGAAA [CACACA_negctrl_site996] | 9.38
20 | ATAAAACAATAAAATTGTACATAAATTGATTATACT [XGTACX_site6723] | 9.78
21 | ACGTTTACGTTATTATGTACGTAATATATCATACCT [XGTACX_site5006] | 9.64
22 | GAATAAATAGACGAGTGTACTTTTTTTTAAAAAAAA [XGTACX_site7880] | 9.65
23 | TGAGAGTTCTCATATGCACACAAAAAACTTTCATTT [CACACA_site7898] | 9.67

Row | Sequence | gcPBM binding intensity (ln)
24 | TTGCAACTCTTCAATCGTACACATTATTTATTATAT [XGTACX_site1377] | 9.89
25 | TACATATACATATACACACACACACCCAAATAAATA [CACACA_site1344] | 10.5
26 | AATAATAACACCGTGGATACACAATAACAAAGAACT [CACACA_negctrl_site532] | 10.2
27 | AAATATTTTTTTTCTACACACATACAAATATATATT [CACACA_site5325] | 9.93
28 | TTTCATTTAGCTTTTACACACTATATATCATTGATT [CACACA_site6158] | 9.91
29 | AAATAAAAAAGTAGTACACACTTCACGATATTTTTT [CACACA_site6015] | 9.87
30 | AAAAATATAAACTGCACACACACAAAAAAAGAAAAA [CACACA_site648] | 10.8
31 | TTTTTTTTAAAAAACACACACCTAAACAAGATATTT [CACACA_site6541] | 9.91
32 | CATATTTTTAAATACACACACATAAAAAAAAAAAAA [CACACA_site1095] | 10.2
33 | AATCTAATATAATGCACACATAAAAAAAAAATCAAA [CACACA_site2714] | 9.77
34 | TATATTTACAATAAAACGTTATTTTTTGTTATTTTC [CACACA_negctrl_site612] | 9.62
35 | TTATTATAATCATTAGTGCATATATTATTTTTATAT | 9.66
36 | TATATACATATATGTACACACATTACAGATGTACAT [CACACA_site966] | 9.99
37 | AAAAAAAAAAAAAAAAGTACAAATAAAAAAAAAATA [XGTACX_site4814] | 9.66
38 | TTATTCACTTCTTTTTAAAAAAAAAAAAAAAAAAAA [CACACA_negctrl_site223] | 8.85
39 | TTGTTAATGGTACGAACACACATATAAAGATGCATA [CACACA_site2044] | 9.68
40 | ATTTCGAATATTAAGTGTACAATATAAATATATAAA [XGTACX_site6674] | 9.54
41 | TTATATGAATTTTAGATTTATAATACAAGAATATTC [CACACA_negctrl_site70] | 9.31
42 | ATTAAATACATTAACACACACACAAATATGTACATA [CACACA_site7372] | 11
43 | ATATTATATAATATACGTACATATATTATGCATAAA [XGTACX_site7895] | 9.6
44 | TACGTAGCCACACTAACACACACAAATATGCACAAT [CACACA_site8942] | 10.9
45 | TTTTTTTCTGTGAGTGCATGTAATAAAATAAATTTA [TGCATGCA_site276] | 9.17
46 | TTCAAAAATATATAATGTACACAAATATAAAAGAAT [XGTACX_site1944] | 9.81

Row | Sequence | gcPBM binding intensity (ln)
47 | TGTTATTTTAAAAAAAAAATTATTAACTTAAAAAAA [CACACA_negctrl_site1641] | 9.23
48 | TTACTTAAGAAACACACACACAAAAAAAAAAAAAAA [CACACA_site946] | 10.1
49 | ATCATAATCATAAAAAGTACAAACGATAAAATAAAT [XGTACX_site3832] | 9.89
50 | TATGTAAAAAATTTAACACACACATATATATATATA [CACACA_site8829] | 10.4
51 | TATTATTCATAATTTATCTTTTAAATTAAATCACAA [GTGCAC_negctrl_site288] | 9.1
52 | TATTTATAATAGTGTACACAATTATAAACTGAATAT [CACACA_site6041] | 9.72
53 | TATTATTGTCTTTCAAAAAAAAAAAAAAAAAAAAAA [CACACA_negctrl_site1242] | 8.61
54 | CAACATATATTAATATGTACATATATATAGATATAT [XGTACX_site4107] | 9.66
55 | CACAGATAAATTAACACACACACACCCATATATATA [CACACA_site3960] | 10.5
56 | CTTTTTGAAATATTAACACACATTTTGTTAATTAAT [CACACA_site4046] | 9.73
57 | ATAATATAACACAAATGTACAAAAAATAAATAAATA [XGTACX_site385] | 9.82
58 | CATACTCACCAACACACACACACACCCATATAGAAT [CACACA_site592] | 11.1
59 | TATATATATACTTAATGTACATATATATATATATAT [XGTACX_site3102] | 9.66
60 | ATAAAAATACAGTTAACACACATGTGTATTTATATG [CACACA_site7727] | 10.2
61 | GAAAACGTTTGAAGTTGTACATATGTATAAAAAGAA [XGTACX_site2304] | 9.85
62 | ATGGTCTGTTAAAGATGTACTTTTTAAAAATAAACG [XGTACX_site2583] | 9.38
63 | AAAAGGAAGATATATACACACATACAAATATATATA [CACACA_site5236] | 10.1
64 | CTATTTGGGGGAAGAGTGCATGACATGAATATAAAA | 9.64
65 | CTATATTATAAATATACACACATATCTTAAGTATAA [CACACA_site3096] | 9.71
66 | ATTAGTATTAGATGATGTACATTTATATTGAAATAT [XGTACX_site8537] | 9.63
67 | TTGATGTATACAATGTAGATTATTTAATATTTCAAC [CACACA_negctrl_site73] | 9.6
68 | TTTTTTTTTTTTTTCACACACTAATAATATTATCAT [CACACA_site4417] | 9.78
69 | ATAAATTTTTAAAAATATGAATTATGTAATTTGTGA [CACACA_negctrl_site1621] | 9.64

Row | Sequence | gcPBM binding intensity (ln)
70 | CATATAATAAATAGATGTACAGACTATATATATATA [XGTACX_site6575] | 9.79
71 | TTTATATGATACACACGTACATATACACATATACAC [XGTACX_site8123] | 10.1
72 | TATATATATATTTTTGCACACATTTTTTAAGGTACA [CACACA_site2145] | 10.2
73 | TATAATATTTATATAACACACATATAGATTTATTTA [CACACA_site6269] | 9.57
74 | AATAGGAAAGATTTTGCATGTGATATAAGTAATTTT [TGCATGCA_site657] | 9.46
75 | ATGTAAAATTAATATTGTACTTTTCCATCATGATAC [XGTACX_site2669] | 9.55
76 | TATATTAAAGGGGTTTCACACACATGTATAATTAAT [CACACA_site7950] | 10.2
77 | TATTATTTAATCAAATGTACATAGAAAATGTATGTA [XGTACX_site4433] | 9.45
78 | ATATATATTATAATCTGTACATAAATATATAATAAA [XGTACX_site5425] | 9.62
79 | TTGTTTTATACATAGTGTACATATAAAAATTTTTTT [XGTACX_site7549] | 9.57
80 | ATTTTCCCTAGAATATGTACACATAGTAAATATTAT [XGTACX_site7499] | 9.68
81 | ATATATAAATATGAAACACACATTCTATTTAATTCG [CACACA_site1450] | 9.75
82 | CAGATAAATAAACACACACACACATATATATATATA [CACACA_site9311] | 10.3
83 | AAATAAAGAAATGCAAGTACATACTAAACTAATCCA [XGTACX_site1209] | 10
84 | AAAAAAAAAAAAGAAAAATATATATATAAATAAATA [GTGCAC_negctrl_site569] | 9.47
85 | ATATGTACAAATTATACACACATGTACAATTATATA [CACACA_site1253] | 9.84
86 | ATGTCACAATTTTTCACACACAAAATTTATATACAT [CACACA_site2030] | 10.1
87 | TATGTTTCTATATATACATGCAAGAAGAAATGTACT [TGCATGCA_site891] | 9.54
88 | CAAAAGGATAGGCACACACACACACCGATATATATA [CACACA_site8685] | 10.7
89 | GAATATTAATTCAAGTGTACAAATATATATATAATT [XGTACX_site5103] | 9.73

— the supplement of paper PMC11417369
